According to the supplement of paper PMC7826260:
The list shows a part of the results. Viral Rep nickase domains cut single-stranded DNA in vitro at 3 µM enzyme and 37 °C for 1 h; the strands have 90 letters, of which the middle is given. The score is log2 (uncut reads / reads without enzyme); uncut sequences lie near 0, cut ones below; no hit call is given. Because reads are shares of a total, they shift together; uncut strands gain when others are lost, and binding without cutting may add a little.

Key:
Assay in all cases: uncleaved DNA left, log2 of reads against the no-enzyme library (log2 ratio); higher = less cleavage (more negative = more Rep cleavage of the k-mer); sequences stand for … in CTCGTCCG…ACCGGAGA
[1] = system: T1, Rep nickase domain of Muscovy duck circovirus
T1 sequence (residues 1-111, tag not shown): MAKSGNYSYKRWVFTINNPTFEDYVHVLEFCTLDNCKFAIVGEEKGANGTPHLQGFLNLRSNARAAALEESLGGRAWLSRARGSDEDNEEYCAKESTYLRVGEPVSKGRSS
Description: (§1)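 A pool of 90-nt single-stranded DNAs with seven random bases just before the constant AC of the nick site (name = the seven bases) was cut by 3 µM recombinant His6-SUMO-tagged Rep nickase domain (300 nM DNA, 50 mM HEPES pH 8.0, 50 mM NaCl, 1 mM MnCl2, 1 h, 37 °C, three replicates). Uncut DNA was amplified and sequenced.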

[2] = system: T2, Rep nickase domain of banana bunchy top virus
T2 sequence (residues 1-94, tag not shown): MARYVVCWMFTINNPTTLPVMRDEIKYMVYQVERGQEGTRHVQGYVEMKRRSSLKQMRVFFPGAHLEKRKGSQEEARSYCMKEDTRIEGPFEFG
Description: as §1

[3] = system: T3, Rep nickase domain of cabbage leaf curl virus
T3 sequence (residues 1-116, tag not shown): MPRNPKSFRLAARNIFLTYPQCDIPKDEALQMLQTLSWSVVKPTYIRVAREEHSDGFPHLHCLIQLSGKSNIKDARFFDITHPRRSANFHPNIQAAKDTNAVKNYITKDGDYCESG
Description: as §1

[4] = system: T4, Rep nickase domain of chickpea chlorotic dwarf virus
T4 sequence (residues 1-124, tag not shown): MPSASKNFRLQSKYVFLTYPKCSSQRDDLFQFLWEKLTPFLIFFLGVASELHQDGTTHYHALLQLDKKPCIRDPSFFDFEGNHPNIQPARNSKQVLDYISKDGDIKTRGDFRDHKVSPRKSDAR
Description: as §1

[5] = system: T5, Rep nickase domain of faba bean necrotic yellows virus
T5 sequence (residues 1-98, tag not shown): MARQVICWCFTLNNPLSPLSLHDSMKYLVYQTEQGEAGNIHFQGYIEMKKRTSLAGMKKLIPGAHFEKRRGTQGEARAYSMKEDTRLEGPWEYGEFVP
Description: as §1

[6] = system: T6, Rep nickase domain of maize striate mosaic virus
T6 sequence (residues 1-117, tag not shown): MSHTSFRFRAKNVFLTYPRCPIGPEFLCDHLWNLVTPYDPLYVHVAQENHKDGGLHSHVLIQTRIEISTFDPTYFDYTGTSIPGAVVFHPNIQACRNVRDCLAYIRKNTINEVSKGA
Description: as §1

[7] = system: T7, Rep nickase domain of porcine circovirus 2
T7 sequence (residues 2-116, tag not shown): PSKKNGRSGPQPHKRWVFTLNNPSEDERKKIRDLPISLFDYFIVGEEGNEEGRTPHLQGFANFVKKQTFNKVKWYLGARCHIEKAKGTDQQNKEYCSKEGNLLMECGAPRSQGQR
Description: as §1

[8] = system: T8, Rep nickase domain of tomato golden mosaic virus
T8 sequence (residues 1-124, tag not shown): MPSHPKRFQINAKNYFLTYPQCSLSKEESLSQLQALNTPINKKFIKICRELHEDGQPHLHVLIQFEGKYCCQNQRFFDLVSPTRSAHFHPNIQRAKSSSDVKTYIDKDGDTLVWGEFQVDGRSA
Description: as §1

[9] = system: T9, Rep nickase domain of tomato yellow leaf curl virus
T9 sequence (residues 1-136, tag not shown): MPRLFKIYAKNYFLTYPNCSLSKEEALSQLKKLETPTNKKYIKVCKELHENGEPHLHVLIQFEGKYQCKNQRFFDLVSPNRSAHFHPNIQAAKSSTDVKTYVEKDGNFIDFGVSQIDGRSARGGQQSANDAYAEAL
Description: as §1

[10] = system: T10, Rep nickase domain of wheat dwarf virus
T10 sequence (residues 1-137, tag not shown): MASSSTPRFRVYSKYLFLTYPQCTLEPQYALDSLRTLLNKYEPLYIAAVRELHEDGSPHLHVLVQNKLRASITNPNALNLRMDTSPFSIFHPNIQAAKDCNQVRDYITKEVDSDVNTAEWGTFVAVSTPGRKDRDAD
Description: as §1

Sequence	uncleaved DNA left (log2) [1]	uncleaved DNA left (log2) [2]	uncleaved DNA left (log2) [3]	uncleaved DNA left (log2) [4]	uncleaved DNA left (log2) [5]	uncleaved DNA left (log2) [6]	uncleaved DNA left (log2) [7]	uncleaved DNA left (log2) [8]	uncleaved DNA left (log2) [9]	uncleaved DNA left (log2) [10]
GGGCCTA	0.0403	-0.0348	0.812	1.93	-0.0237	2.18	0.113	0.0571	0.0194	0.126
AGCTTAC	0.067	-0.041	-0.0983	-1	-0.0769	-0.179	-0.136	0.0175	0.0414	-0.0312
TTTCAGT	0.0751	0.101	0.0675	-0.624	0.0475	-0.724	-0.263	0.0203	0.0424	0.0383
CCATTTC	0.0421	0.0815	-0.293	-0.546	0.0445	-1.06	0.154	-0.0139	0.167	0.0284
TTGACGC	0.07	0.0546	-0.277	-0.537	0.0279	-0.869	0.0407	-0.0597	0.0799	0.0584
TACGTAG	0.219	-0.0397	-0.57	-0.936	0.091	-0.968	0.254	0.0819	0.112	-0.0145
TGATTCT	-3.2	-0.123	-0.195	-2.14	-0.00513	-0.727	-2.76	-0.211	-0.0763	-0.312
CCGCGAT	0.075	-0.0622	-0.102	-0.249	0.138	-0.196	0.04	-0.0179	-0.0152	-0.0639
TATGATC	-0.00481	-0.199	-0.0192	-0.683	0.0337	-0.328	-0.07	-0.137	-0.0617	-0.0477
CATCAGC	0.0326	0.0728	-0.568	-0.682	0.111	-1.13	0.0801	-0.0056	0.161	-0.056
TTACGTA	0.0529	-0.0188	-0.033	-1.22	-0.146	-0.398	-0.213	-0.115	-0.0466	-0.0502
GAAGGGT	0.0765	0.177	0.348	1.49	0.00807	1.84	0.19	0.158	-0.0114	-0.0137
CTTCGTG	0.0484	0.0108	-0.726	-0.703	-0.00336	-1.19	0.0818	-0.0456	0.00362	0.0122
CCAACCT	-0.223	-0.093	-0.343	-2.51	-0.0966	-0.372	-0.823	0.0331	-0.0577	-0.0641
AACAGAA	0.0552	0.0744	-0.0651	-0.302	0.0799	-0.622	-0.0188	0.0117	-0.044	-0.000855
